# Measurements taken from the supplement of paper PMC3334620.
# Over roughly 33,000 sequences, “E-score (-0.5 to 0.5)” has its median near -0.012; the highest 2% begin near 0.27. The list shows a part of the results.
# Molecular target: T1, Vhr1 (UniProt P40522)
# T1 sequence: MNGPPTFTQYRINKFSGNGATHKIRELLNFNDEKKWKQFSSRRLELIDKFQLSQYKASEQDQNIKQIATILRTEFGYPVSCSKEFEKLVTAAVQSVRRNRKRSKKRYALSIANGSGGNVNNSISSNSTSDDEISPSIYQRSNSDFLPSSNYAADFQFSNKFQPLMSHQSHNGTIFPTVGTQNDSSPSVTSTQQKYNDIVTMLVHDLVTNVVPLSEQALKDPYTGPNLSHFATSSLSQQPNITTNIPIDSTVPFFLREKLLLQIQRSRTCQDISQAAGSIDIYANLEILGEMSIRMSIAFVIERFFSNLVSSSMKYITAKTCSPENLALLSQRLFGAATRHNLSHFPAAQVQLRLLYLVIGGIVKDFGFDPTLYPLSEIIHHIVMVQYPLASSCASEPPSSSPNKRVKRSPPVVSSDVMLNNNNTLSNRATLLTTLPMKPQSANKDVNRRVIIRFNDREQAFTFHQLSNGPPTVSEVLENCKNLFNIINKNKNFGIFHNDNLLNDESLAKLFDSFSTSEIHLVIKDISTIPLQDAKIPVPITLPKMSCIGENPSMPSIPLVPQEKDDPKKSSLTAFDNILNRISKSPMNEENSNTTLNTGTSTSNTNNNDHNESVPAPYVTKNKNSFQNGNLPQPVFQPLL
# Assay: PBM E-score (8-mer binding enrichment) (E-score (-0.5 to 0.5)); higher = stronger / more preferred TF binding; most listed sequences are background and not binding sites
# Conditions: protein concentration: 200 nM; construct: GST-full length
# How it was run: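 Yeast transcription factors, full-length or as DNA-binding domains, were expressed with a GST tag using PURExpress in vitro transcription/translation. At about 100-200 nM they were applied to universal all-10-mer Agilent arrays, double-stranded by primer extension on fresh or once-stripped slides. Fluorescent anti-GST detected bound protein, and masliner normalised the scans. E-scores for ungapped eight-base words, pooled with reverse complements, came from the Universal PBM Analysis Suite.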
row,Sequence,PBM E-score
1,CCGCATAA,0.188
2,CTTGGAGC,-0.11
3,GCACCTCC,-0.136
4,CATGGAGC,0.0853
5,GCCGTATA,-0.0816
6,CATCCGAA,0.0481
7,CGGCCGTC,-0.141
8,CACTGCCC,0.0947
9,AGGCGGCG,0.0356
10,AAAGCGGA,-0.0824
11,ACCCCCGG,-0.093
12,GGAACACA,0.0124
13,AAGAGCGC,-0.0393
14,CGTTAAAA,-0.336
15,ACTATCCC,-0.0165
16,CGGGTAAG,-0.00697
17,GGGACGAC,0.0124
18,AGCGACGA,-0.0426
19,TACCATAA,0.119
20,TACAATAA,-0.0976
21,GTGCCACA,-0.236
22,ATGTTGCA,-0.0483

row,Sequence,PBM E-score
1,AAAGGTCA,-0.173
2,GGGTAGCA,-0.0389
3,TCACCAGA,0.0739
4,CCCCGCTA,-0.0924
5,GGTCGTTA,0.0152
6,AGAGACCG,-0.134
7,GCCCAATA,0.0616
8,ATTGTCAC,0.0489
9,CCTAACCA,0.13
10,ACACCTAG,0.00135
11,CGGCACGA,0.154
12,CACCTATG,0.141
13,ACCTGTCA,0.0978
14,GCGTGCTA,-0.27
15,ATAGATGG,-0.0985
16,CTGCTCTA,-0.0486
17,CATGTTCC,-0.0214
18,GCTGCCTA,-0.0572
19,ACGGGTGC,-0.0228
20,AAATCTAC,-0.0558
21,CAATTATA,-0.0739
22,CGCCTTTA,-0.158

row,Sequence,PBM E-score
1,CGGTAGTA,-0.0683
2,CCAGTCTA,-0.16
3,GCTTGTGA,-0.0581
4,GAGCGGCC,-0.141
5,ACAAGCGA,0.19
6,CCTGATAC,0.116
7,CAGTGTTC,0.109
8,AAATCTGT,0.0348
9,AAAATAGT,-0.0544
10,ATCTCGTC,-0.115
11,CCACTGCG,0.174
12,AGCCCAAG,-0.127
13,AAAGCGGT,-0.08
14,ATGTTCGC,-0.114
15,GATCTCTA,-0.157
16,CCTTCGAC,-0.0593
17,ACTTAACG,-0.211
18,CACGCTGC,0.132
19,CAAGAGGC,-0.0919
20,AGGTCCAC,-0.176
21,ACGAAGAC,0.0865
22,CGCTCTGA,-0.106

row,Sequence,PBM E-score
1,CCCCGGTC,0.0272
2,ACCGTTCG,-0.0425
3,CATCAGCA,0.067
4,CGTGGCTA,-0.0862
5,GATCCATC,0.194
6,CATTGGGA,-0.137
7,AATCAATA,0.0533
8,TGCCCCCA,-0.269
9,CCAGTTGC,-0.0928
10,ATCATTAA,0.0987
11,TGAGAGCA,0.00884
12,ACAGCGAA,0.0614
13,CCCCTCCG,-0.0395
14,AACCAATA,0.115
15,AAGTGTTG,0.0568
16,AACGAACC,0.0314
17,TACAGTCA,0.294
18,AGTACTCC,0.167
19,CGTCAGCA,-0.11
20,ACACGGGC,0.0165
